From PubChem BioAssay AID1508624 (National Center for Advancing Translational Sciences (NCATS), 2021) come the findings set out here.

Screen size: about 48,000 compounds; about 120 (0.25%) were called active. Inconclusive results (about 4%) are left out. The call rests on the fitted dose curve; in most records, active means well fitted activation curve with a large enough effect; inconclusive means small, poorly fitted or top-dose-only effect, or another doubt; inactive means no such curve, though single readings can be large or run the other way. This is one part of the list.

The assay can be described thus: Primary qHTS for Identification of Small Molecule Activators of Huntingtin-Antisense Promoter Activity. Further: nearly all actives have a fitted effect of over 55% in size. The note with it: HEK293 HTT-AS promoter firefly luciferase reporter, 24 h; series mostly up to 57.5 µM; activity change, positive = activation: at the top concentration. In short, it runs like this:
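HEK293 cells carrying firefly luciferase reporters were seeded at 2,500 per well in Opti-MEM and cultured for 24 h. They were then treated with compounds at up to 57.5 uM final for 24 h at 37 degrees C before Dual-Glo luminescence readout.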
`COc1ccc(C)cc1NS(=O)(=O)c1ccc2c(c1)CCCN2C(C)=O`: the “activity change, positive = activation” value was inactive: -16.5%.

`COc1ccc(-c2nc(SCC(=O)NCC3CCCO3)c(-c3ccc(C)cc3)[nH]2)cc1OC` (configuration not stated): the “activity change, positive = activation” value was inactive: -3.98%.

Regarding `COc1ccc(NC(=O)N2CCN(Cc3nc4ccc(C)cc4o3)CC2)cc1OC`, the “activity change, positive = activation” value is inactive: -12.5%.

With `CCCCNC(=O)CN1CCN(c2ccc(NC(=O)c3ccc(OC)cc3)cc2C(=O)O)CC1`, the “activity change, positive = activation” value is inactive: -5.57%.

As for `Cc1ccc(N(C)S(=O)(=O)c2nnc(NC(=O)c3ccco3)s2)cc1`, the “activity change, positive = activation” value is inactive: -19.7%.

Regarding `COc1ccc(-c2c(C#N)c(SCC(=O)Nc3ccc(C)c(C)c3)nc(C)c2C(=O)Nc2ccccc2)cc1OC`, the “activity change, positive = activation” value was inactive: 0%.

For the molecule `O=C(O)CN(CCN(CC(=O)O)CC(=O)O)CCN(CC(=O)O)CC(=O)O`, the “activity change, positive = activation” value is inactive: 0.615% [at 25.1 µM, percent change from vehicle, -100% = no light].

Take `COc1ccc(CNC(=O)C2CCN(C(=O)N3CCOc4ccc(C)cc43)CC2)cc1`: the “activity change, positive = activation” value is inactive: -23.3%.

In the case of `CC1CCCN(C(=O)c2ccc(CSc3nc4ccncc4n3Cc3ccccc3)cc2)C1` (configuration not stated), the “activity change, positive = activation” value was inactive: -9.42%.

Regarding `O=C(NCc1ccc(Cl)cc1)c1cc2cccc3c2n1CCS3`, the “activity change, positive = activation” value was inactive: -23.4%.

As for `CCc1cc(C(=O)N2CCN(c3ccccc3)CC2)no1`, the activity change, positive = activation was inactive: 15.6% [at 11.5 µM, percent change from vehicle, -100% = no light].

Take `Cc1cccc(-n2c(=O)c3c(c4cc(C)ccc4n3C)n(CC(=O)Nc3ccc(C)c(C)c3)c2=O)c1`: the “activity change, positive = activation” value was inactive: -16.2%.

As to `CC(C)(C)NC(=O)Cn1cc(S(=O)(=O)Cc2ccccc2Cl)c2ccccc21`, the “activity change, positive = activation” value is inactive: -2.5%.

In the case of `COc1ccccc1N1CCN(c2c3c(nc4nncn24)CCC3)CC1`, the “activity change, positive = activation” value was inactive: -9.69%.

As to `Cc1cccc(NC(=O)Cn2c(=O)n(Cc3nc(-c4ccccc4)no3)c(=O)c3ccccc32)c1`, the “activity change, positive = activation” value was inactive: -31%.

Regarding `COC(=O)c1sccc1S(=O)(=O)N(CC(=O)NCc1ccc(F)cc1)c1ccccc1`, the “activity change, positive = activation” value was inactive: -19.7%.

As for `Cc1ccc(CNC(=O)C2CCCN(c3nc4ccccc4n4cccc34)C2)cc1` (configuration not stated), the “activity change, positive = activation” value was inactive: -24.2%.

On to `COc1ccc(C(C)NC(=O)CN(c2cc(OC)ccc2OC)S(=O)(=O)c2ccccc2)cc1` (configuration not stated), for which the “activity change, positive = activation” value is inactive: 10.4%.

`CC1CCN(CCCNC(=O)CN2C(=O)CSc3ccc(S(=O)(=O)N4CCCCC4)cc32)CC1`: the “activity change, positive = activation” value was inactive: -9.91%.

Turning to `Brc1cccc(-c2nn(-c3ccccc3)c3c2cnc2cc4c(cc23)OCO4)c1`, the “activity change, positive = activation” value is inactive: -10.8%.

As for `O=C(c1cccs1)N1CCCc2cc(NS(=O)(=O)c3ccc(Br)cc3)ccc21`, the “activity change, positive = activation” value was inactive: -40.8%.

On to `CCc1cccc(C)c1NC(=O)C1CCN(S(=O)(=O)c2cc(Br)cc3c2N(C(C)=O)CC3)CC1`, for which the “activity change, positive = activation” value is inactive: 6.01%.

`COc1ccc(NC(=O)Nc2cccc(-c3noc(C)n3)c2)cc1`: the “activity change, positive = activation” value is inactive: -16.1%.

Take `Cc1ccc(C)c(CN2CCC(CNC(=O)C(CC(C)C)N3Cc4ccccc4C3=O)CC2)c1` (configuration not stated): the “activity change, positive = activation” value was inactive: -30.1%.

Consider `COCCn1c(CNC(=O)c2ccccc2C)nc2cccnc21`, for which the “activity change, positive = activation” value was inactive: -12.5%.

In the case of `COc1cccc(-n2ccnc2SCC(=O)Nc2cccc3ccccc23)c1`, the “activity change, positive = activation” value is inactive: -30.1%.

Turning to `COc1ccc(-n2c(CC3C(=O)Nc4ccc(C)cc43)nc3ccccc3c2=O)cc1` (configuration not stated), the “activity change, positive = activation” value is inactive: -1.8%.

Regarding `O=C(NCc1ccccc1Cl)c1ccc2c(c1)ncn2-c1cccc(F)c1`, the “activity change, positive = activation” value is inactive: -2.01%.

Regarding `CCc1ccc(C2c3c(-c4cc(C)ccc4O)n[nH]c3C(=O)N2CCO)cc1` (configuration not stated), the “activity change, positive = activation” value was inactive: -20.9%.

As to `Cn1c(SCC(=O)N2CCOCC2)ncc(C(=O)Nc2ccc(F)cc2)c1=O`, the “activity change, positive = activation” value was inactive: -19.6%.

With `Cn1c(=O)c2c(ncn2CCO)n(C)c1=O`, the “activity change, positive = activation” value was inactive: -14.6%.

Turning to `CCCSc1nc2sc3c(c2c(=O)n1-c1ccc(C)cc1)CCCC3`, the “activity change, positive = activation” value is inactive: -21%.

Consider `CCOC(=O)c1c(S(=O)(=O)NCC(=O)Nc2cccc(SC)c2)c(C)n(C)c1C`, for which the “activity change, positive = activation” value is inactive: -15.6%.

Regarding `COc1ccc(NC(=O)CCCS(=O)(=O)c2nc(-c3ccccc3OC)cc(C(F)(F)F)n2)c(OC)c1`, the “activity change, positive = activation” value was inactive: -0.42%.

As for `CC1=C(c2ccc(C(C)C)cc2)S(=O)(=O)NC1=NCc1ccc(OC(C)C)cc1`, the “activity change, positive = activation” value was inactive: -8.97%.

`Cc1ccc(OCCn2c(CNc3ccccc3C)nc3ccccc32)cc1`: the “activity change, positive = activation” value is inactive: 23.3%.

Take `Cn1c(C(=O)NCc2ccccc2Cl)cc2sc(Cl)cc21`: the “activity change, positive = activation” value is inactive: -9.29%.

In the case of `Cc1cc(NC(=O)c2cnn(-c3ccccc3)c2-n2cccc2)ccc1Br`, the “activity change, positive = activation” value was inactive: 1.52%.

As for `COc1ccc(-c2csc3ncnc(Nc4ccc(OC)cc4OC)c23)cc1`, the “activity change, positive = activation” value was inactive: -5.29%.

Turning to `COc1cccc(-c2nc3c(C#N)c[nH]n3c2NC2CCCCC2)c1`, the “activity change, positive = activation” value is inactive: -5.79%.

For `CCc1cccc(NC(=O)Cn2c(=O)n(CC3CCC(C(=O)NC)CC3)c(=O)c3sccc32)c1` (configuration not stated), the “activity change, positive = activation” value is inactive: -24.9%.

With `COc1cccc(CNC(=O)CN(c2ccc(C)cc2)S(=O)(=O)N(C)C)c1OC`, the “activity change, positive = activation” value was inactive: -11.4%.

For `COc1cccc(CNC(=O)Cn2c(=O)cc(C)c3c(C)nn(C)c32)c1OC`, the “activity change, positive = activation” value is inactive: -11.3%.

With `N#CC1=C(N)N(c2ccc(Cl)cc2)C2=C(C(=O)CCC2)C1c1cc(CN2CCOCC2)cs1` (configuration not stated), the “activity change, positive = activation” value was inactive: -8.13%.

As to `O=C(NC1CCCCC1)c1ccc2c(c1)N(Cc1ccc(F)cc1)C(=O)c1ccccc1S2(=O)=O`, the “activity change, positive = activation” value was inactive: -24.4%.

Turning to `COc1cc(NS(=O)(=O)c2cc(Br)cc3c2N(C(C)=O)C(C)C3)cc(OC)c1` (configuration not stated), the “activity change, positive = activation” value was inactive: -40.3%.

`Cc1cccc(N(C)C(=O)C2CCC(CNS(=O)(=O)c3cccc4nsnc34)CC2)c1` (configuration not stated): the “activity change, positive = activation” value was inactive: -19.1%.
